Data as given in ChEMBL document CHEMBL4888484, “Replenishing the malaria drug discovery pipeline: Screening and hit evaluation of the MMV Hit Generation Library 1 (HGL1) against asexual blood stage Plasmodium falciparum ,using a nano luciferase reporter read-out” (2022).
In all, about 150,000 compounds went through this assay and about 540 (0.36%) showed an effect of 50% or more. The list shows a part of the results.

Tested on: Plasmodium falciparum
Assay: Primary screen in NF54 nanoGlo assay, in single point, at 2uM, 72h; a lower Z score goes with more inhibition
Format: functional, Erythrocyte
Details: timepoint 72 hour

SMILES | % Inhibition [%] | Z score
NS(=O)(=O)c1ccc(-n2nc(COc3ccccc3)nc2C2CC2)cc1 | -8 | 1.47
O=C(NCCc1nnc2ccccn12)c1ccc2c(c1)OCCO2 | -19 | 2.75
CN(C)c1cnc(-n2cc(NC(=O)Nc3cccc(C(F)(F)F)c3)cn2)nc1 | -5 | 0.74
CN1CC(=O)N[C@@H](c2ccc(Cl)cc2)C1=O | 29 | -3.69
Cc1csc(CNC(=O)CCC(=O)Nc2ccc3c(c2)CCC3)n1 | -18 | 1.87
COc1c(C)cnc(CN2CCC(N(C)CCc3scnc3C)CC2)c1C | -9 | 1.21
Cc1ccc(-n2nc(C(=O)NCc3ccccn3)c(=O)n(Cc3ccccc3Cl)c2=O)cc1 | 3 | -0.33
Cc1cc(C)nc(CCNC(=O)c2cc(COc3cncc(Cl)c3)on2)n1 | -2 | 0.21
CN(Cc1nccn1C)C(=O)NC(C)(C)C | -4 | 0.69
OCCc1ccc(-c2cc(NCc3cccnc3)nc3[nH]ccc23)cc1 | -8 | 0.86
O=c1n(-c2ccccc2)cc(-c2ccccc2)n1-c1ccccc1 | -14 | 1.7
Cn1cc(NS(=O)(=O)c2cnn(C3CCC3)c2)c(-c2ccco2)n1 | 2 | -0.44
CC(C(=O)N(CC(O)CC(C)(C)C)C1CCN(C)CC1)C1CC1 (stereo not given) | 1 | -0.12
COC(=O)c1cc(-c2ccc(C(=O)N[C@H]3CC[C@H](O)CC3)cc2)cn1C | -7 | 1.37
Nc1c2c(-c3ccc(Cl)cc3)nc(N3CCCC3)nc2nn1-c1ccc(Cl)cc1 | -8 | 1.32
Cc1nc(C)c(NC(=O)N2CCC[C@H]3CN(C)C[C@H]32)s1 | -3 | 0.43
CC(=O)Nc1ccc(C(=O)Nc2cccc(NC3CCCC3)c2)cc1 | -9 | 0.79
CN1CCC(N(CCc2ccccc2)C(=O)c2cnc[nH]c2=O)CC1 | -1 | 0.27
CC[C@H](C)NC(=O)Nc1cc(Cl)ccc1Cl | 3 | -0.39
COCC(=O)N[C@@H]1CN(C(=O)C2CCCCCC2)C[C@H]1c1ccnn1C | 5 | -0.82
Cc1ccc(=O)n(Cc2ccn(-c3ccc(F)cc3F)n2)n1 | -4 | 0.51
CN(Cc1cscn1)c1cc(C2CC2)ncn1 | -8 | 1.13

SMILES | % Inhibition [%] | Z score
COC(=O)c1c(F)cccc1NS(=O)(=O)C[C@H](OC)C1CC1 | -10 | 1.05
CC(=O)C(C(=O)Nc1ccc(F)cc1)C(c1ccc(Cl)cc1Cl)C(C#N)C#N (stereo not given) | -6 | 1.09
Cc1sc2ccccc2c1S(=O)(=O)N(C)Cc1cnccn1 | -6 | 0.78
O=C(Cn1cnc2ccccc21)N1CCN(S(=O)(=O)C2CC2)CC1 | -2 | 0.26
CS(=O)(=O)CCn1nnc(Cc2ccc(Cl)c(Cl)c2)n1 | 1 | -0.18
COCc1cn(C2CCN(C(=O)NC3CCCC3)CC2)nn1 | 1 | -0.26
Cc1ccc(CC(=O)Nc2cc(Cl)cc(C(=O)O)c2)o1 | 0 | 0.09
Cc1cc2ncn(Cc3ccoc3C(=O)O)c2cc1C | -1 | 0.14
CC(=O)N1CCc2ccc(OCc3nc(C(=O)NCc4cccc(F)c4)cs3)cc2[C@@H]1c1cccc(F)c1 | -12 | 1.13
CCN(C(=O)c1ccnn1C)c1ncccc1C | 3 | -0.24
Cc1ccc(S(=O)(=O)NC[C@H]2CCCN2c2ncccn2)cc1C | 16 | -1.8
O=C(C1CCCN1c1ncccn1)N1CCCC(O)C1 (stereo not given) | -12 | 1.06
O=C(NS(=O)(=O)[C@H]1CCCOC1)c1ccc2sccc2c1 | -14 | 2.66
Cc1nc([C@H](C)NC(=O)CCC(F)(F)F)n[nH]1 | -16 | 2.43
CCOC[C@H](C)CS(=O)(=O)NCCc1cc[nH]n1 | -12 | 1.54
O=S(=O)(c1cncc(Br)c1)N1CCCCO1 | -7 | 0.97
O=C1COc2ccccc2CN1C1CCCCCC1 | -2 | 0.2
CNC(=O)c1noc(CN2C[C@@](C)(Cc3ccc4c(c3)OCO4)CCC2=O)n1 | -6 | 0.77
Cn1ccnc1CN1CCO[C@H](C(=O)NCCc2cccnc2)C1 | -3 | 0.69
CCNC(=O)N1CCC(N2C[C@H](OCC3CC3)C23CCOCC3)CC1 | -3 | 0.58
O=C(Cn1nc(C2CC2)cc1C(=O)N1CCCC1)Nc1ccc(F)c(F)c1 | -9 | 1.47
Cc1ccc(NC(=O)Cn2c(=O)n(Cc3cccc(Cl)c3)c(=O)c3ccccc32)c(Cl)c1 | 4 | -0.44

SMILES | % Inhibition [%] | Z score
CC1CC(NCC2(C)CCN(C(=O)OC(C)(C)C)CC2)CC(C)O1 (stereo not given) | 6 | -0.91
O=C(Cc1cccnc1)N1CC(n2cnnc2C2CCOCC2)C1 | -2 | 0.37
CCCN(Cc1ccncc1)Cc1ccccn1 | -16 | 2.2
CNC(=O)[C@@H]1C[C@H](NCc2cc(F)ccc2F)CN1Cc1ccccc1Cl | 13 | -1.65
C[C@H](NC(=O)C1CCOCC1)c1ccc(Cl)s1 | 1 | -0.15
CCN(Cc1cccs1)C(=O)c1cccc(S(=O)(=O)N2CC(C)CC(C)C2)c1 (stereo not given) | 4 | -0.37
CCOC(=O)N1CCN(C(=O)c2noc3c2C[C@@H](C(C)(C)C)CC3)CC1 | -37 | 4.29
CCCN1C(=O)c2cc(S(=O)(=O)N(C)Cc3ccccc3)ccc2Oc2cccnc21 | 2 | -0.36
CCOc1ccccc1N(C)Cc1noc(C2CC2)n1 | -7 | 0.97
COc1ccc(OC)c(CNC(=O)CN2C(=O)CCn3nc(-c4cccc(Cl)c4)cc32)c1 | 4 | -0.44
Cc1oc(-c2[nH]ncc2C(=O)N2CCOCC2)cc1S(=O)(=O)N1CCN(C)CC1 | -4 | 0.57
Cc1ccc(-c2nn(Cc3cccnc3)c(=O)n2C)s1 | -6 | 0.91
CCOc1ccnc(N2CC[C@H](O)CC(C)(C)C2)n1 | -12 | 1.33
O=C(c1ccc(Nc2c(Oc3ccccc3)cnn(-c3ccccc3)c2=O)cc1)N1CCCCC1 | 12 | -1.25
CO[C@@H](CNC(=O)C(=O)NCc1ccc(F)cc1)c1cc2ccccc2o1 | -21 | 3.62
C[C@@H](Cn1cnc2ccccc2c1=O)NCC1(CO)CCC1 | 3 | -0.39
Cc1ccccc1CN1CCn2c(nn(C)c2=O)C1 | -14 | 2.46
CC(C)c1ccnc(NC[C@@H](c2ccco2)N(C)C)n1 | -8 | 1.51
Cc1nn(C)c2nc(N3CCC(OCCN(C)C)CC3)sc12 | -7 | 1.04
CC1(C)CN(C(=O)[C@@H]2CCc3cc(F)ccc32)CCO1 | 2 | -0.33
CC1C(C(F)(F)F)OCCN1C(=O)c1ncc2ccccc2c1O (stereo not given) | -15 | 1.39
C[C@H]1Cc2cc(S(=O)(=O)N3CCC(C(=O)NCc4ccccc4)CC3)ccc2N1C(=O)C1CCC1 | -8 | 1.35

SMILES | % Inhibition [%] | Z score
COc1ccccc1CNC(=O)c1ccc2c(c1)N(C(=O)c1ccc(F)cc1)CC2 | -6 | 0.73
O=C(CC[C@@H]1NC(=O)c2ccccc2N=C1O)NCCc1ccc(Cl)cc1 | -10 | 1.15
Cc1[nH]c(CN2CCC(C)(C(=O)N(C)C)CC2)cc1C#N | -9 | 1.8
CCOC(=O)c1ncn2c(N)c(C(=O)Nc3cccc(Cl)c3)nnc12 | -9 | 1.02
COCCNC(=O)c1cc2cc(NS(=O)(=O)c3ccc(C(C)(C)C)cc3)ccc2n1Cc1cc(C)ccc1C | 11 | -1.36
CCCn1cc(CN2CCC(O)(C(F)(F)F)CC2)cn1 | -8 | 1.02
Fc1ccc(C2(c3nc(C4CC4)no3)CC2)cc1 | -14 | 2.06
c1ncc2c(n1)CN(CCCOc1ccc3c(c1)OCO3)CC2 | -5 | 0.76
CC(C)c1nc(CCNS(=O)(=O)C2(C)CC2)cs1 | -5 | 0.61
Cc1cc(-n2nc(C)nc2-c2ccc(C#CC(C)(C)O)o2)ccn1 | -16 | 2.49
CC1(C)CC[C@H](CO)N(c2cc(-n3ccnc3)ncn2)C1 | -21 | 2.6
CC(C)(C)c1nnc2n1CCN(Cc1ccc(S(C)(=O)=O)o1)C2 | 1 | -0.24
Cc1nn(C)c2nc(-c3cccnc3)nc(N(C)CC[C@H]3CCCCO3)c12 | 0 | 0.04
CO[C@@H](C)C(=O)N1CCC(CNC(=O)c2ccoc2)CC1 | 4 | -0.83
Cc1nn([C@@H](C)C(=O)NC2CCCC2)c2ccccc12 | -12 | 1.71
O=c1n(Cc2cccc(NS(=O)(=O)c3cn[nH]c3)c2)nc2ccccn12 | -4 | 0.71
CC(C)c1nccc(CN(C)[C@@H](C)c2ccc3c(c2)OCCO3)n1 | -3 | 0.42
O=C(NC[C@]1(OCCO)CCOC1)c1ccc(Cl)s1 | 4 | -0.47
Cc1cc(=O)[nH]c(CCNC(=O)[C@@H](N)Cc2c[nH]c3ccccc23)n1 | -3 | 0.31
